According to the supplement of paper PMC4967469:
By IC50 is meant the dose at which the fit gives 50% viability; fits outside the tested doses are given as limits. AUC, from the same fit, is the share of area under the viability curve across the 256-fold dose range; the more sensitive the line, the further below 1. For part of these data: Where the top dose is marked as inferred, it was derived from the fitted curves, not read from the paper. For part of these data: An entry number marks a drug with two screens in the source, which often give different values.

How the values were obtained:
Assay in all cases: Viability of human cancer cell lines after 72 h of drug (GDSC screen)
[1] = compound: C/C(=C\c1csc(C)n1)[C@@H]1C[C@@H]2O[C@]2(C)CCC[C@H](C)[C@H](O)[C@@H](C)C(=O)C(C)(C)[C@@H](O)CC(=O)O1 [Epothilone B]; conditions: top dose 0.032 µM; top dose inferred
Protocol: (§1)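 Human cancer cell lines in 384-well plates, medium with 10% serum, drug for 72 h over a 256-fold dose range (nine 2-fold or five 4-fold steps up to the top dose). Adherent lines were fixed and stained with the nucleic acid dye Syto60, suspension lines read with resazurin; signal relative to control wells, capped at 0 and 100%. One two-parameter sigmoid per drug and line, fitted in a mixed model over all curves with the slope shared within a line.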

[2] = compound: CC(C)CC(=O)Nc1n[nH]c2c1CN(C(=O)C1CCN(C)CC1)C2(C)C [PHA-793887]; conditions: top dose 10.24 µM
Protocol: as §1

[3] = compound: CCCS(=O)(=O)Nc1ccc(F)c(C(=O)c2c[nH]c3ncc(Cl)cc23)c1F [PLX4720]; conditions: top dose 10 µM
Protocol: as §1

[4] = compound: C[C@@H](N)c1ccc(C(=O)Nc2ccnc3[nH]ccc23)cc1 [Y-39983]; conditions: top dose 20 µM; top dose inferred
Protocol: as §1

[5] = compound: NC(=O)Nc1sc(-c2ccc(F)cc2)cc1C(N)=O [TPCA-1]; conditions: top dose 20 µM
Protocol: as §1

[6] = screen: GDSC drug entry 1371, top dose inferred

Cell Line	AUC [1]	IC50 [1]	AUC [2]	IC50 [2]	AUC ([3]; screen: GDSC drug entry 1036)	IC50 ([3]; screen: GDSC drug entry 1036)	AUC [3, 6]	IC50 [3, 6]	AUC [4]	IC50 [4]	AUC [5]	IC50 [5]
22RV1 (prostate, adherent)	0.679	0.00717 µM	0.878	> 10.2 µM	0.981	> 10 µM	0.962	> 10 µM	0.958	> 20 µM	0.913	> 20 µM
42-MG-BA (glioma, adherent)	0.846	0.0259 µM	0.941	> 10.2 µM	0.985	> 10 µM	0.983	> 10 µM	0.948	> 20 µM	0.893	> 20 µM
201T (lung adenocarcinoma, adherent)	0.295	0.000451 µM	0.913	> 10.2 µM	0.962	> 10 µM	–	–	0.956	> 20 µM	0.828	16.9 µM
451Lu (melanoma, adherent)	0.503	0.00204 µM	0.949	> 10.2 µM	0.281	0.155 µM	0.666	1.77 µM	0.979	> 20 µM	0.883	19.9 µM
639-V (bladder, adherent)	0.197	0.000304 µM	0.931	> 10.2 µM	0.991	> 10 µM	0.986	> 10 µM	0.974	> 20 µM	0.948	> 20 µM
647-V (bladder, adherent)	0.573	0.00318 µM	0.872	9.81 µM	0.987	> 10 µM	0.986	> 10 µM	0.987	> 20 µM	0.846	14.7 µM
769-P (kidney, adherent)	0.353	–	0.745	3.48 µM	–	–	0.968	> 10 µM	0.865	> 20 µM	0.83	14.1 µM
786-0 (kidney, adherent)	0.092	< 0.000125 µM	0.719	2.52 µM	0.94	> 10 µM	0.987	> 10 µM	0.927	> 20 µM	0.828	11 µM
5637 (bladder, adherent)	0.351	0.000807 µM	0.891	9.98 µM	0.936	> 10 µM	0.962	> 10 µM	0.933	> 20 µM	0.823	10.4 µM
8305C (thyroid, adherent)	0.53	0.00248 µM	0.979	> 10.2 µM	0.716	3.12 µM	0.804	6.95 µM	0.981	> 20 µM	0.926	> 20 µM
8505C (thyroid, adherent)	0.306	0.000549 µM	0.822	6.46 µM	0.926	> 10 µM	0.976	> 10 µM	0.966	> 20 µM	0.877	> 20 µM
23132-87 (stomach, adherent)	0.613	0.00415 µM	0.808	5.55 µM	0.986	> 10 µM	0.985	> 10 µM	0.909	> 20 µM	0.834	13.7 µM
A172 (glioma, adherent)	0.506	0.00207 µM	0.861	8.16 µM	0.989	> 10 µM	0.987	> 10 µM	0.949	> 20 µM	0.935	> 20 µM
A204 (rhabdomyosarcoma, adherent)	0.562	–	0.682	2.42 µM	–	–	0.96	> 10 µM	0.939	> 20 µM	0.833	18.6 µM
A427 (non-small cell lung carcinoma, adherent)	0.382	0.000941 µM	0.956	> 10.2 µM	0.971	> 10 µM	0.985	> 10 µM	0.917	> 20 µM	0.838	13.8 µM
A431 (skin, adherent)	0.185	0.000241 µM	0.979	> 10.2 µM	0.844	6.72 µM	0.917	> 10 µM	0.927	> 20 µM	0.731	5.49 µM
A673 (rhabdomyosarcoma, adherent)	0.577	0.00318 µM	0.988	> 10.2 µM	0.956	> 10 µM	0.924	> 10 µM	0.987	> 20 µM	0.921	> 20 µM
A2058 (melanoma, adherent)	0.371	0.000919 µM	0.914	> 10.2 µM	–	–	0.934	> 10 µM	0.985	> 20 µM	0.976	> 20 µM
A2780 (ovary, semi-adherent)	0.529	0.00241 µM	0.266	0.134 µM	0.96	> 10 µM	0.983	> 10 µM	0.496	1.21 µM	0.54	1.61 µM
ABC-1 (lung adenocarcinoma, adherent)	0.483	0.00178 µM	0.8	6.2 µM	–	–	0.961	> 10 µM	0.931	> 20 µM	0.843	18.7 µM
ACHN (kidney, adherent)	0.401	0.00103 µM	0.953	> 10.2 µM	–	–	0.905	> 10 µM	0.954	> 20 µM	0.812	12.7 µM
AGS (stomach, adherent)	0.532	0.00242 µM	0.889	9.6 µM	0.99	> 10 µM	–	–	0.985	> 20 µM	0.965	> 20 µM
AN3-CA (endometrium, adherent)	0.316	0.000578 µM	0.874	> 10.2 µM	–	–	0.97	> 10 µM	0.968	> 20 µM	0.886	> 20 µM
ASH-3 (thyroid, adherent)	0.454	0.0015 µM	0.987	> 10.2 µM	0.988	> 10 µM	0.987	> 10 µM	0.988	> 20 µM	0.984	> 20 µM
